The source of these data is PubChem BioAssay (NCI).

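Briefly, cells in 96-well plates were exposed to five compound concentrations for 48 h, and endpoints were estimated by linear interpolation. At the GI50, growth is halved. The concentration for full growth arrest is given as TGI.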 Bounds are passed on as bounds.

This assay deals with NCI-H322M lung. The assay can be described thus: NCI-60 cell line screen, 48 h.
Consider `CC(=O)Nc1ccc(-c2cn(-c3cccc(C(=O)Nc4cc(C(F)(F)F)cc(C(F)(F)F)c4)c3)nn2)cn1`, for which the GI50 is 14.2 µM and the TGI was found to be 33.2 µM.
On to `Fc1ccc(F)c(CNc2nc(SCCN3CCOCC3)nc3c2cnn3CC(Cl)c2ccc(Br)cc2)c1` (stereo not drawn), for which the GI50 was 19.5 µM and the TGI was above 100 µM.
In the same order, the values of `CN(C)CCCNC(=O)c1cc(NC(=O)c2cc(NC(=O)c3ccc(C#Cc4ccccc4)cc3)cn2C)cn1C` are 3.92 µM and 15.2 µM.
In the same order, the values of `CN1CCN(c2ccc(Nc3nc(NCCCNC(=O)C4CCCCC4)c4sccc4n3)cc2)CC1` are 16.1 µM and 35.4 µM.
